Test in all cases: Primary Screen for Target Class Profiling of Small Molecule Inhibitors of Methyltransferases
The target of assay [1] is Guanidinoacetate N-methyltransferase (Homo sapiens) (UniProt Q14353). Particulars: purified enzyme, MTase-Glo SAH luminescence; measured here: GAMT inhibition; at 40 µM; stronger effect = lower value. The method in brief: (§1)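 Each enzyme was reacted with SAM and its substrate, with compounds tested once at 40 uM; SAH formed was read by MTase-Glo luminescence.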
Assay [2] deals with Nicotinamide N-methyltransferase (Homo sapiens) (UniProt P40261). Particulars: purified enzyme, MTase-Glo SAH luminescence; measured here: NNMT inhibition; at 40 µM; stronger effect = lower value. The method in brief:
as §1

In assay [3] the target is Phenylethanolamine N-methyltransferase (Homo sapiens) (UniProt P11086). Particulars: purified enzyme, MTase-Glo SAH luminescence; measured here: PNMT inhibition; at 40 µM; stronger effect = lower value. In a few lines: as §1
The target in assay [4] is Glycine N-methyltransferase (Homo sapiens) (UniProt Q14749). Particulars: purified enzyme, MTase-Glo SAH luminescence; measured here: GNMT inhibition; at 40 µM; stronger effect = lower value. In a few lines: as §1
The target in assay [5] is Histamine N-methyltransferase (Homo sapiens) (UniProt P50135). Particulars: purified enzyme, MTase-Glo SAH luminescence; measured here: HNMT inhibition; at 40 µM; stronger effect = lower value. The method in brief: as §1

Some of the results follow. These are further read-outs of the screen, such as a control signal, another cell line or another target. No call is given for them.
% is scaled to controls: 0 for no effect and ±100 for the full control effect.

For `O=C1CCCC2=C1C(c1ccccc1Br)N=C(Nc1nc3ccccc3o1)N2` (stereo unspecified), the activity change, negative = inhibition in assay [1] is -4.92%; in assay [2] it was -17.4%; in assay [3] it was 2.98%.
For `CCCNCCc1ccc(NS(=O)(=O)c2ccc(OC(F)(F)F)cc2)cc1`, the activity change, negative = inhibition was 2.56% in assay [4]; 11.1% in assay [1]; 8.49% in assay [5]; -6.38% in assay [2]; 4.68% in assay [3].
Take `CNC(=O)Cn1ccc2cc(S(=O)(=O)N3CCCCC3)ccc21`: the activity change, negative = inhibition is 3.37% in assay [4]; 5% in assay [1]; 0.251% in assay [5]; 3.66% in assay [2]; 0.053% in assay [3].
With `Cc1ccccc1-c1cn(C)c(=O)n2cc(CNc3ccccc3)nc12`, the activity change, negative = inhibition in assay [4] was -7.6%; in assay [1] it was -13.1%; in assay [5], -4.44%; in assay [2], -29.1%; in assay [3] it was -6.03%.
Consider `COc1cc(/C=C/C=O)cc(OC)c1O[C@@H]1O[C@H](CO)[C@@H](O)[C@H](O)[C@H]1O`, for which the activity change, negative = inhibition in assay [4] is 4.5%; in assay [1] it was 4.97%; in assay [5], 10.2%; in assay [2], -6.58%; in assay [3], 2.88%.
Turning to `CC(C)Cn1c(=O)c2ccc(C(=O)NC3CCCC3)cc2n2c(=O)n(Cc3ccc(Cl)cc3)nc12`, the activity change, negative = inhibition stood at 3.78% in assay [4]; 7% in assay [1]; 5.05% in assay [5]; 1.07% in assay [2]; 4.68% in assay [3].
For the compound `CC1CC(C)CN(S(=O)(=O)c2ccc3c(c2)oc(=O)n3CC(=O)NCc2ccccn2)C1` (stereo unspecified), the activity change, negative = inhibition in assay [4] stood at 0.157%; in assay [1], 6.04%; in assay [5], 6.02%; in assay [2], 9.74%; in assay [3] it was 0.494%.
Taken in the same sequence, the figures for `Cn1cnc2c(F)c(Nc3ccc(Br)cc3Cl)c(C(=O)NOCCO)cc21` were -18%, -10.5%, -2.83%, -22.7% and -1.4%.
In the case of `COC(=O)C(CC1(O)c2ccccc2N2C(=O)C(C)(C)N(O)C21)n1cnc2ccccc2c1=O` (stereo unspecified), the activity change, negative = inhibition in assay [4] is 3.12%; in assay [1] it was -0.496%; in assay [5], 6.32%; in assay [2], -27.2%; in assay [3], 0.074%.
For `C=Cc1ccc(Cn2nc3n(CC(C)C)c(=O)c4ccc(C(=O)NC(C)C)cc4n3c2=O)cc1`, the activity change, negative = inhibition in assay [4] is 0.213%; in assay [1], 4.66%; in assay [5], -4.05%; in assay [2], -1.24%; in assay [3] it was 0.738%.
For `COc1ccccc1C(C(=O)O)N1CCC(OCc2cccnc2)CC1` (stereo unspecified) the same measures were -2.39%, -3.11%, -1.32%, 3.83% and -1.05%.
As for `CN1CCC(Nc2ncc(C(C)(C)C(=O)O)c(N3CCOCC3)n2)CC1`, the activity change, negative = inhibition is -0.211% in assay [4]; -2.65% in assay [1]; -3.9% in assay [5]; -2.25% in assay [2]; 1.76% in assay [3].
For `O=C(Cn1c(=O)oc2cc(S(=O)(=O)NC3CCCC3)ccc21)N1CCCC1` the same measures were 0.245%, 2.49%, 7.98%, 17.2% and 3.92%.
On to `C=C1C(O)C[C@@H]2C(C(=O)O)=CO[C@@H](O[C@@H]3O[C@H](CO)[C@@H](O)[C@H](O)[C@H]3OC(=O)c3ccc(O)cc3)[C@H]12` (stereo partly specified), for which the activity change, negative = inhibition is -0.144% in assay [4]; -4.44% in assay [1]; 7.93% in assay [5]; -19.4% in assay [2]; 3.08% in assay [3].
For `CCCN1C(=O)c2c(C(=O)N3CCN(c4ccccc4)CC3)ncn2CC1(C)C(=O)NCc1ccc(F)cc1` (stereo unspecified) the same measures were 0.558%, 2.04%, 9.66%, 6.87% and 10.1%.
As for `O=C(CCc1nnn2c1CN(Cc1cn[nH]c1-c1ccc(F)cc1)CC2)N1CCCC1`, the activity change, negative = inhibition in assay [4] is -4.43%; in assay [1], -7.58%; in assay [5] it was -2.62%; in assay [2] it was -13.3%; in assay [3], -4.93%.
For `Cc1ccc(CN2C(=O)c3nc4ccccc4n3CC2(C)C(=O)NC2CCCCC2)cc1` (stereo unspecified) the same measures were -4.85%, 0.588%, 3.06%, 2.63% and -1.79%.
For `C/C=C/C=C/C(=O)N1CC[C@]23c4ccccc4N[C@H]4N(C)c5cccc6c5[C@@]42CCN([C@H]6C2OC2(C)C)[C@H]13` (stereo partly specified) the same measures were 0%, -7.86%, 0.181%, -22.4% and -3.23%.
For the compound `O=C(O)CC1CCCCN(Cc2ccccc2)C1=O` (stereo unspecified), the activity change, negative = inhibition is -6.18% in assay [4]; -7.88% in assay [1]; -2.87% in assay [5]; -10.4% in assay [2]; -4.32% in assay [3].
With `OC[C@@H]1O[C@H](CNCc2cccc(Cl)c2)[C@H](N2CCN(c3ccccn3)CC2)[C@@H]1O`, the activity change, negative = inhibition in assay [4] is -2.51%; in assay [1], -1.52%; in assay [5] it was -3.63%; in assay [2] it was -2.88%; in assay [3], -4.7%.
Turning to `CCCCCCCCCCCCCCCC(=O)N[C@H](CN1CCOCC1)[C@H](O)c1ccccc1`, the activity change, negative = inhibition was 19% in assay [1], 4.05% in assay [2] and 9.59% in assay [3].
With `CC1=C[C@@H](CN2CCC(O)CC2)[C@H](C(C)C)C[C@H]1Cc1nnc(-c2ccncc2)o1`, the activity change, negative = inhibition in assay [4] is -5.27%; in assay [1], -10.4%; in assay [5], -11.9%; in assay [2] it was -13.5%; in assay [3] it was -5.17%.
For `Cc1nn(C)c(=O)n1C1CCN(C(=O)c2ccco2)CC1` the same measures were -4.29%, -5.88%, -1.87%, -6.86% and -0.137%.
Taken in the same sequence, the figures for `COc1ccc(OC)c2c1cc1n2CC(C)(C(=O)NC2CCCCC2)N(CCC(C)C)C1=O` (stereo unspecified) were -13.9%, -4.37%, -8.98%, -20.1% and -21.6%.
For `O=C(CCC1CCCN(Cc2cccn2-c2ccccn2)C1)Nc1ccccc1F` (stereo unspecified) the same measures were -4.79%, 0.409%, -49.9%, -8.99% and 6.69%.
Regarding `Cc1ccc2c(c1)c(-n1cccc1)c1n2CC(C)(C(=O)NC2CCCC2)N(Cc2ccco2)C1=O` (stereo unspecified), the activity change, negative = inhibition in assay [4] was -5.21%; in assay [1] it was 4.17%; in assay [5], -1.93%; in assay [2], -15.5%; in assay [3] it was -3%.
For `COCCCNC(=O)CCc1nnc2n(Cc3ccc(F)cc3)c(=O)c3ccccc3n12` the same measures were -4.55%, 0%, 6.81%, 4.05% and -0.547%.
Taken in the same sequence, the figures for `O=C(NC1CCCN(c2cc(-c3ccc(F)cc3)[nH]n2)C1)c1cnccn1` (stereo unspecified) were -8.69%, -1.15%, -2.08%, -8.51% and 4.9%.
For `Cc1ccccc1-n1nc(-c2c(-c3ccc(F)cc3)nn3c2NC[C@@H](CO)C3)ccc1=O` the same measures were -2.67%, -5.14%, 3.03%, -23.6% and -10.2%.

For the origin of these results see PubChem BioAssay AID1745853 (National Center for Advancing Translational Sciences (NCATS), 2022).
